Laboratory results published in PubChem BioAssay AID504339 (National Center for Advancing Translational Sciences (NCATS), 2011).
Out of some 390,000 compounds screened, about 17,000 (4.4%) were called active. Inconclusive means that the source gave no clear call. Such entries were picked first, then a sample of the others. Calls come from the whole dose curve; as a rule, active = well fitted inhibition curve with a large enough effect; inconclusive = small, poorly fitted or top-dose-only effect; inactive = no such curve, though single readings can be large or run the other way. Potencies of inconclusive entries are doubtful fits and often do not repeat.

Biological target: Lysine-specific demethylase 4A (Homo sapiens) (UniProt O75164)
Experiment: qHTS Assay for Inhibitors of JMJD2A-Tudor Domain; note: nearly all actives have a fitted effect of over 50% in size
Settings: AlphaScreen JMJD2A-Tudor / H3K4me3 peptide binding; activity change, negative = inhibition: at 114 µM (top of the series)
% is set by controls: 0 for no effect and ±100 for the full control effect; potency is the fitted concentration of half-maximal effect; tags give direction and shape of the fitted curve.

UniProt O75164, sequence (O75164 whole entry, looked up, the tested form may be a part): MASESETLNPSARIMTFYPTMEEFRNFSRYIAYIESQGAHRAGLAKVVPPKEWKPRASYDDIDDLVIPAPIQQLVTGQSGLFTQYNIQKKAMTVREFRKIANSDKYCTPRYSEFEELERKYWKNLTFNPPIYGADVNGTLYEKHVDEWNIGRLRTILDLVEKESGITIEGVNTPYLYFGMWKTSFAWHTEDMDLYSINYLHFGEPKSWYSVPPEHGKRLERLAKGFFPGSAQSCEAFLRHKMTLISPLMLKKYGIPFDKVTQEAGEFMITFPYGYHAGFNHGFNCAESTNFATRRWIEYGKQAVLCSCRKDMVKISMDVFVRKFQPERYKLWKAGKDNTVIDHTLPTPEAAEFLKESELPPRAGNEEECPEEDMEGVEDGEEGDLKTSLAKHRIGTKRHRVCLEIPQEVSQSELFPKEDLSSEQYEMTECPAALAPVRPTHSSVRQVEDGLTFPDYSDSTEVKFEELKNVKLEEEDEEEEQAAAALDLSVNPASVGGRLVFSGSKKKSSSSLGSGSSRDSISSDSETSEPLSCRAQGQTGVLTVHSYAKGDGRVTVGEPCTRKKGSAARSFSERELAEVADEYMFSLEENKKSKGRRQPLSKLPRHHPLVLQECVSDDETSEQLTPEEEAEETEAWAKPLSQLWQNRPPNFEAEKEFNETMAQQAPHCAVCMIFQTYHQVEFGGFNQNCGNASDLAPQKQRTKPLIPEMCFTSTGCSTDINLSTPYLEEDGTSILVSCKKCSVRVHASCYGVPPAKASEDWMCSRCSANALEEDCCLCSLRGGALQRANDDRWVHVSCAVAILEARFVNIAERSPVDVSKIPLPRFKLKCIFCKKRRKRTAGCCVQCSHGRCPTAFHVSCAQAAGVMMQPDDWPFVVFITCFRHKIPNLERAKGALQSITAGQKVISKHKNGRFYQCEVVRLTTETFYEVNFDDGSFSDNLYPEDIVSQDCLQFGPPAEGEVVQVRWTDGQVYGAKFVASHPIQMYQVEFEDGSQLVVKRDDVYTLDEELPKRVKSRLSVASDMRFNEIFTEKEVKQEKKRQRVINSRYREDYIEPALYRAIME

Structure (SMILES) | Potency | activity change, negative = inhibition
CC(=NNc1nc2ccccc2o1)c1ncccn1 | active: 10 µM | –
COc1ccc(-c2ccc(/C=C3/C(=N)N4C=CSC4=NC3=O)o2)c([N+](=O)[O-])c1 | inconclusive: 39.8 µM [inhibitor, partial curve] | –
CC1CCC(C(C)C)C(OC(=O)COC(=O)c2cc(O)ccc2N)C1 (stereo unspecified) | inconclusive: 17.8 µM [inhibitor, full curve] | –
O=C(CSCc1ccc(F)cc1)N1CCc2c([nH]c3ccccc23)C1c1ccccc1 (stereo unspecified) | inconclusive: 22.4 µM [inhibitor, full curve, poor fit] | –
Cc1onc(-c2c(F)cccc2Cl)c1C(=O)NCCN1CCNC1=O | inactive | –
O=C(c1cc(O)c(O)c([N+](=O)[O-])c1)c1ccccc1F | inconclusive: 35.5 µM [inhibitor, partial curve, poor fit] | –
COc1ccc(/C=N/Nc2nc(C(=O)O)cs2)cc1 | inconclusive: 70.8 µM [inhibitor, single point] | –
O=C(O)CC(Cn1[nH]nnc1=S)c1ccccc1 (stereo unspecified) | active: 50.1 µM | –
CSc1ccc(-c2sc(Nc3ccccc3)n[n+]2-c2ccccc2)cc1 | active: 56.2 µM | –
C=CCn1c(-c2cccnc2)n[nH]c1=S | active: 20 µM | –
COc1cc2c(cc1OC)C(c1ccc(-c3ccccc3Cl)o1)=NCC2 | inconclusive: 44.7 µM [inhibitor, partial curve] | –
O=C(Nc1ccc(N2CCN(C(=O)c3ccco3)CC2)cc1)c1cccnc1Cl | inactive | –
COc1ccc(C2C(C#N)=C(N)Oc3c2c(-c2ccccc2)nn3-c2ccccc2)c(OC)c1OC (stereo unspecified) | inconclusive: 50.1 µM [inhibitor, partial curve] | –
O=C(Nc1ccccc1N1CCCCC1)c1ccc([N+](=O)[O-])o1 | – | inconclusive: -57.2% [inhibitor]
O=C(Oc1ccc(Cl)c2cccnc12)N1CCCCC1 | inactive | –
CN(C)c1ccc(NC(=O)C2(c3cccs3)CCOCC2)cc1 | inconclusive: 56.2 µM [inhibitor, partial curve] | –
O=C1c2ccccc2NC(c2cccc(F)c2)N1Cc1ccccc1 (stereo unspecified) | inactive | –
CCOc1ccccc1Nc1nc(N)nc(CN(C)C2CCCCC2)n1 | active: 50.1 µM | –
Cc1ccccc1N=Nc1ccc(O)c2ncccc12 | inconclusive: 39.8 µM [inhibitor, partial curve] | –
Cc1cccc(NC2CCCCC2NS(=O)(=O)c2ccccc2)c1 (stereo unspecified) | inconclusive: 25.1 µM [inhibitor, full curve, poor fit] | –
CCc1ccc(C(=O)c2cn(Cc3ccccc3)c3cc(OC)c(OC)cc3c2=O)cc1 | inconclusive: 89.1 µM [inhibitor, partial curve, poor fit] | –
